Measured values published in US10695333B2 (NOVARTIS AG, priority 2017, dated 2020).

Tested on: D538G ER mutant MCF-7 xenograft
Test: D538G ER mutant MCF-7 breast cancer model in NSG mice
Assay type: in vivo, mouse
Conditions: for Tumor response Regression / Tumor response ΔT/ΔC: Day 74; for Tumor response in words: LSZ102 80 mg/kg daily, fulvestrant 5 mg/mouse weekly

| Compound | Tumor response Regression (5 mg/mouse SC QWeek) [%] | Tumor response ΔT/ΔC (5 mg/mouse SC QWeek) [%] | Tumor response in words | Tumor response Regression (80 mg/kg QD PO) [%] | Tumor response ΔT/ΔC (80 mg/kg QD PO) [%] |
| --- | --- | --- | --- | --- | --- |
| C[C@]12CC[C@@H]3c4ccc(O)cc4C[C@@H](CCCCCCCCC[S+]([O-])CCCC(F)(F)C(F)(F)F)[C@H]3[C@@H]1CC[C@@H]2O (stereo partly drawn) [Fulvestrant, reference compound] | 28.1 | −66.5 | also active | – | – |
| CC(F)(F)c1cc(F)ccc1-c1sc2cc(O)ccc2c1Oc1ccc(/C=C/C(=O)O)cc1 [LSZ102, (E)-3-(4-((2-(2-(1,1-difluoroethyl)-4-fluorophenyl)-6-hydroxybenzo[b]thiophen-3-yl)oxy)phenyl)acrylic acid] | – | – | regressed the D538G ER expressing MCF-7 xenografts | 37.7 | −89.3 |
